According to the supplement of paper PMC12217912:
This is one part of the list. The full chains were built here from the parent and the listed change. Values near 0.05 are background.

B1: TEV protease; numbered along this chain (parent)
chain: MGESLFKGPRDYNPISSSICHLTNESDGHTTSLYGIGFGPFIITNKHLFRRNNGTLVVQSLHGVFKVKDTTTLQQHLVDGRDMIIIRMPKDFPPFPQKLKFREPQREERICLVTTNFQTKSMSSMVSDTSCTFPSGDGIFWKHWIQTKDGQCGSPLVSTRDGFIVGIHSASNFTNTNNYFTSVPKNFMELLTNQEAQQWVSGWRLNADSVLWGGHKVFMVKPEEPFQPVKEATQL

Variants of: B1
Assay: raw area under fraction-flipped curve 0-4 h after induction (AUC4h, not background-subtracted), DNA-recorder readout of cleavage of the substrate (dimensionless); higher = more cleavage of the substrate by the protease variant
Conditions: temperature: 34 °C; time window: 0-4 h after rhamnose induction
Description: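 In vivo DNA recorder in E. coli TOP10(DE3) ΔrhaA at 34 °C. Each TEVp single-site mutant (parent TEVp 0) is paired with a single-site variant of the 7-mer TEVs (canonical ENLYFQ|S). The substrate sits between flexible linkers in a Bxb1-sfGFP-TEVs-SsrA fusion, so cleavage stabilises Bxb1 and speeds flipping of a recombination array, read by NGS. The value is the raw area under the fraction-flipped curve over 0-4 h after rhamnose induction (AUC4h), with ≥20 reads per time point. It is not background-subtracted; inactive controls average about 0.047.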
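Also: Bxb1 expression induced with 0.2% (w/v) L-rhamnose at OD600 near 0.5, cultures sampled hourly, flipped fraction per protease–substrate barcode pair counted by paired-end Illumina sequencing.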

Row | Variant | area with substrate ENLAFQS | area with substrate ENLCFQS | area with substrate ENLDFQS | area with substrate ENLEFQS | area with substrate ENLFFQS | area with substrate ENLGFQS | area with substrate ENLHFQS | area with substrate ENLIFQS | area with substrate ENLKFQS | area with substrate ENLLFQS | area with substrate ENLMFQS | area with substrate ENLNFQS | area with substrate ENLPFQS | area with substrate ENLRFQS | area with substrate ENLSFQS | area with substrate ENLVFQS | area with substrate ENLWFQS | area with substrate ENLQFQS | area with substrate ENLTFQS
1 | K230T | 0.0625 | 0.0614 | 0.0587 | 0.0756 | 0.0907 | 0.0605 | 0.092 | 0.0871 | 0.0749 | 0.0793 | 0.101 | 0.0625 | 0.0605 | 0.0768 | 0.0662 | 0.0812 | 0.0626 | – | –
2 | K230L | 0.074 | – | 0.0599 | 0.0665 | 0.0751 | – | 0.0609 | 0.0693 | 0.0702 | 0.0573 | – | 0.0642 | 0.0629 | – | 0.0669 | 0.0594 | 0.066 | – | –
3 | E223R | 0.0706 | 0.0681 | 0.0575 | 0.0662 | – | – | 0.0694 | 0.087 | 0.0774 | 0.0655 | – | 0.0585 | 0.0471 | 0.082 | 0.0466 | 0.0848 | 0.0697 | 0.0721 | –
4 | W199D | 0.0618 | 0.0747 | 0.066 | 0.0631 | 0.0485 | – | – | 0.0664 | 0.0644 | 0.0683 | 0.0618 | 0.0644 | 0.0777 | – | 0.0834 | 0.0638 | 0.0745 | 0.0594 | –
5 | W203C | 0.06 | 0.0756 | 0.0722 | 0.0581 | 0.065 | 0.0634 | 0.0621 | 0.0554 | 0.0702 | 0.0597 | 0.0555 | 0.059 | 0.0418 | 0.0811 | – | 0.0577 | 0.0571 | 0.0701 | –
6 | F226K | 0.0626 | 0.081 | 0.0603 | 0.0618 | 0.0951 | – | 0.0661 | – | 0.0668 | – | 0.0793 | 0.065 | – | 0.0831 | 0.0667 | 0.0238 | 0.0671 | – | –
7 | F226A | 0.0579 | – | – | 0.068 | 0.0835 | 0.0502 | – | – | – | 0.0852 | 0.0826 | 0.0621 | – | 0.0823 | 0.0622 | – | – | 0.0342 | –
8 | G213W | 0.0662 | 0.0607 | 0.0618 | 0.0665 | 0.0671 | 0.0479 | 0.0648 | 0.0566 | 0.0624 | 0.054 | 0.0544 | 0.0626 | 0.0565 | 0.0354 | 0.0478 | 0.0678 | 0.0597 | 0.0651 | –
9 | G213M | 0.0645 | 0.0679 | 0.0573 | 0.0756 | 0.0725 | – | – | – | 0.0644 | – | 0.07 | 0.0574 | – | – | 0.0525 | 0.0751 | – | 0.0581 | –
10 | G213D | 0.0574 | – | 0.0611 | 0.0702 | 0.0657 | 0.0611 | 0.0556 | – | 0.0569 | 0.0505 | – | – | 0.0624 | – | 0.0474 | 0.0398 | 0.0611 | – | –
11 | A207V | 0.0462 | – | 0.0646 | 0.0601 | 0.0854 | – | 0.0803 | 0.0608 | 0.0809 | 0.0761 | 0.0638 | 0.0668 | 0.062 | 0.0734 | 0.0669 | 0.0897 | 0.0606 | 0.0378 | –
12 | H215E | 0.0687 | 0.0547 | 0.0699 | – | 0.0532 | – | 0.0594 | – | 0.0517 | – | – | 0.0714 | 0.0326 | 0.0453 | 0.0562 | – | 0.0705 | – | –
13 | H215R | 0.0538 | 0.0326 | – | – | 0.0654 | – | – | 0.0548 | 0.0631 | – | – | 0.0578 | 0.0566 | – | – | – | 0.0465 | 0.0601 | –
14 | G202L | 0.0569 | – | – | – | 0.0479 | 0.0578 | – | – | 0.0602 | – | 0.0708 | – | – | – | 0.0565 | – | 0.0607 | – | –
15 | S201L | 0.0656 | 0.045 | 0.0684 | 0.0631 | 0.071 | – | 0.0938 | 0.0699 | 0.0783 | – | – | – | 0.0633 | 0.0644 | 0.0566 | 0.0428 | – | – | –
16 | S201I | 0.0684 | 0.0727 | 0.0681 | 0.057 | – | 0.067 | 0.0736 | 0.0658 | 0.0931 | – | 0.0574 | – | 0.0831 | 0.0698 | 0.0635 | 0.0943 | – | – | 0.0691
17 | R204Q | 0.0705 | 0.0778 | 0.0611 | 0.0855 | 0.0964 | – | 0.0826 | 0.0878 | 0.103 | – | 0.102 | 0.0699 | – | 0.0818 | 0.0492 | 0.0916 | – | 0.0566 | –
18 | R204W | 0.0642 | 0.0658 | 0.0658 | 0.128 | 0.0909 | 0.0668 | 0.071 | 0.114 | 0.0774 | 0.0808 | – | 0.0725 | 0.0809 | 0.0727 | 0.0492 | 0.087 | 0.0814 | 0.0736 | –
19 | L211V | 0.0652 | – | 0.0732 | 0.0443 | – | – | – | 0.0915 | 0.07 | 0.0762 | – | – | – | 0.0577 | – | – | 0.0846 | 0.0669 | –
20 | W212F | 0.06 | – | 0.0537 | – | 0.0934 | – | 0.0692 | 0.0694 | 0.0754 | – | – | 0.0619 | 0.0621 | 0.0783 | – | 0.0926 | 0.0633 | – | –
21 | W212D | 0.0493 | – | 0.0699 | – | 0.049 | – | – | – | 0.0614 | 0.0506 | – | 0.0662 | 0.0518 | – | 0.0614 | 0.0633 | – | – | –
22 | Q234R | 0.0696 | 0.0844 | 0.0382 | – | 0.0855 | 0.0573 | 0.0526 | 0.118 | 0.0657 | 0.0855 | – | 0.0725 | 0.0546 | 0.0513 | 0.0854 | – | 0.0566 | – | –
23 | P222Y | 0.0669 | 0.0864 | 0.0618 | 0.0707 | 0.0766 | – | – | 0.0747 | 0.0509 | – | – | 0.0635 | – | – | – | – | – | 0.0636 | 0.0743
24 | P222Q | 0.0795 | 0.0637 | 0.0608 | – | 0.0744 | 0.061 | 0.0749 | 0.0682 | 0.0769 | 0.0735 | 0.063 | 0.0618 | 0.0643 | 0.0758 | 0.0473 | – | – | 0.0754 | 0.0739
25 | V220A | 0.0555 | – | 0.0689 | – | 0.0725 | – | 0.0546 | – | 0.0706 | – | – | 0.0641 | – | 0.0755 | 0.0439 | 0.0491 | – | – | –
26 | N206T | 0.0701 | – | 0.0484 | 0.0607 | – | – | 0.0534 | 0.0862 | 0.0797 | 0.0878 | – | 0.0701 | 0.0513 | – | – | – | – | – | –
27 | Q227T | 0.0716 | 0.0639 | 0.0789 | – | 0.0822 | – | 0.036 | 0.172 | 0.0687 | – | 0.065 | – | 0.0423 | – | – | – | – | 0.0706 | –
28 | E3S | – | 0.0784 | – | – | 0.0943 | 0.0448 | – | 0.0952 | 0.0773 | 0.0845 | – | 0.0688 | 0.045 | 0.0739 | 0.0468 | – | – | – | –
